Test results: the supplement of paper PMC7125110
± gives the standard error. This sample is rich in variants without activity.

B1: glmS ribozyme (parent)
chain: AUAAAAGCGCCAGAACUACAGAAAUGUAGUUGACGAGGAGGAGGUUUAUCGAAUUUUCGGCGGAUGCCUCCAAA

How the values were obtained:
Details in all cases: with glucosamine-6-phosphate
glucosamine-6-phosphate [1] = variants of: B1; test: self-cleavage kobs at 640 uM GlcN6P; higher = faster cleavage; RNA array
In short: (§1)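 Glucosamine-6-phosphate (40 μM to 10 mM) in HEPES/KCl/Mg(OAc)2 buffer was flowed over sequenced MiSeq chips, and tiles were imaged over ~14 h. Barcoded ribozyme variants there had been transcribed in situ by E. coli RNA polymerase and were tracked through a hybridised Cy3 probe at 37 °C. One- or two-exponential decay fits to per-tile medians, normalised to baseline and to non-cleaving reference variants, gave kobs. kcat and KM came from weighted Michaelis–Menten fits across concentrations.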

glucosamine-6-phosphate [2] = variants of: B1; test: self-cleavage kobs at 2500 uM GlcN6P; higher = faster cleavage; RNA array
In short: as §1

glucosamine-6-phosphate [3] = variants of: B1; test: self-cleavage kobs at 10000 uM GlcN6P; higher = faster cleavage; RNA array
In short: as §1

glucosamine-6-phosphate [4] = variants of: B1; test: self-cleavage kobs at 160 uM GlcN6P; higher = faster cleavage; RNA array
In short: as §1

Variant | self-cleavage kobs at 640 uM GlcN6P (glucosamine-6-phosphate [1]) [s⁻¹] | self-cleavage kobs at 2500 uM GlcN6P (glucosamine-6-phosphate [2]) [s⁻¹] | self-cleavage kobs at 10000 uM GlcN6P (glucosamine-6-phosphate [3]) [s⁻¹] | self-cleavage kobs at 160 uM GlcN6P (glucosamine-6-phosphate [4]) [s⁻¹]
G44A G51A U57G | < 1e-05 | < 1e-05 |  | 
G44A G60C | < 1e-05 | < 1e-05 | < 1e-05 | 
G44A U49A U65A | < 1e-05 |  |  | 
G44A U57A C70A | < 1e-05 | < 1e-05 |  | 
G44C | 4.33e-05 ± 1.8e-06 | 0.000127 ± 2.9e-06 | 0.000159 ± 3.5e-06 | < 1e-05
G44C A48U G62U U69C C70U | < 1e-05 | < 1e-05 |  | 
G44C C58G C61G | < 1e-05 |  |  | 
G44C G63A | < 1e-05 | < 1e-05 |  | < 1e-05
G44C G66C U69C | < 1e-05 | < 1e-05 |  | 
G44C U45A A52U | < 1e-05 | < 1e-05 |  | 
G44C U47G A53C A64U | < 1e-05 | < 1e-05 |  | < 1e-05
G44U | 0.000101 ± 2.1e-06 | 0.000282 ± 6.2e-06 | 0.000335 ± 6.6e-06 | 2.34e-05 ± 1.7e-06
G44U A48U A64G C67G | 0.000188 ± 7.9e-05 |  |  | 
G44U C50A G66U C68A C71U | < 1e-05 |  |  | 
G44U G60A | < 1e-05 | < 1e-05 | < 1e-05 | < 1e-05
G44U G66A C70G | < 1e-05 | < 1e-05 |  | < 1e-05
G44U U45A U46G G51C | < 1e-05 |  |  | 
G44U U46A A53U C70G | < 1e-05 |  |  | 
G44U U49C G60A G63A C67G | < 1e-05 | < 1e-05 |  | 
G44U U56G | 3.67e-05 ± 1.1e-05 | 6.96e-05 ± 1.9e-05 | 0.00015 ± 3.7e-05 | 
U45A A64C | 7.26e-05 ± 1.9e-05 | 0.000193 ± 3.8e-05 | 0.000277 ± 7.6e-05 | 
U45A G59C | < 1e-05 |  |  | 
U45A G59U C70A | < 1e-05 | < 1e-05 |  | 
U45A G60U | < 1e-05 |  |  | 
U45A G63A G66U | < 1e-05 | < 1e-05 |  | < 1e-05
U45A G63C C68G | < 1e-05 | < 1e-05 |  | < 1e-05
U45C A48U G59U C67U | < 1e-05 |  |  | 
U45C A53C C67U | 5.23e-05 ± 1.6e-05 | 6.03e-05 ± 1.8e-05 |  | < 1e-05

Variant | self-cleavage kobs at 640 uM GlcN6P (glucosamine-6-phosphate [1]) [s⁻¹] | self-cleavage kobs at 2500 uM GlcN6P (glucosamine-6-phosphate [2]) [s⁻¹] | self-cleavage kobs at 10000 uM GlcN6P (glucosamine-6-phosphate [3]) [s⁻¹] | self-cleavage kobs at 160 uM GlcN6P (glucosamine-6-phosphate [4]) [s⁻¹]
U45C C58G C61G | < 1e-05 |  |  | 
U45C U46G | 0.000322 ± 8.8e-05 | 0.000911 ± 0.00015 | 0.000685 ± 0.00025 | 7.78e-05 ± 1.5e-05
U45C U54C G60C | < 1e-05 | < 1e-05 | < 1e-05 | 
U45G A52C U55C C61U | < 1e-05 | < 1e-05 |  | 
U45G A53G G62A A64C | < 1e-05 | < 1e-05 |  | 
U45G C50U A52G U56G | < 1e-05 |  |  | 
U45G C61U C70G | < 1e-05 |  |  | 
U45G U46A U49A | < 1e-05 | < 1e-05 |  | 
U45G U47G | 0.00314 ± 0.00086 | 0.00347 ± 0.00055 |  | 0.000328 ± 9.1e-05
U45G U69C | 0.0407 ± 0.018 |  |  | 
U46A A52G G59U G66A C70U | < 1e-05 | < 1e-05 |  | < 1e-05
U46A U47G G63U U65A | < 1e-05 | < 1e-05 |  | 
U46A U49A | < 1e-05 | < 1e-05 |  | < 1e-05
U46A U49C G62U U65A | < 1e-05 | < 1e-05 |  | 
U46C A48U G51C | < 1e-05 | < 1e-05 |  | 
U46C A64C C68U | < 1e-05 | < 1e-05 |  | 
U46C C50U G66C | < 1e-05 | < 1e-05 |  | 
U46C C58U G59A | < 1e-05 |  |  | 
U46C C71A | 0.000252 ± 4.5e-05 | 0.00045 ± 9.1e-05 | 0.000453 ± 0.00011 | 8.19e-05 ± 2.2e-05
U46C G60C C68G | < 1e-05 |  |  | 
U46C G63U C70U | < 1e-05 |  | < 1e-05 | 
U46G A52C C70G | < 1e-05 |  | < 1e-05 | < 1e-05
U46G A53G C70A | 0.000507 ± 0.0001 |  |  | 
U46G C50A C67G | 0.000631 ± 0.00012 | 0.000506 ± 0.00017 |  | 
U46G C58A G59U U65A | < 1e-05 | < 1e-05 |  | 
U46G G59A | < 1e-05 |  |  | < 1e-05
U47A A52U | 7.72e-05 ± 1.5e-05 | 0.000158 ± 3e-05 | 0.000299 ± 4.3e-05 | 
